# Experimental data published in the supplement of paper PMC8728848.
# The other results are listed elsewhere or left out.
# B1: AT1G15820(2) (Arabidopsis thaliana), Q9LMQ2 (protein)
# chain: MAMAVSGAVLSGLGSSFLTGGKRGATALASGVGTGAQRVGRKTLIVAAAAAQPKKSWIPAVKGGGNFLDPEWLDGSLPGDFGFDPLGLGKDPAFLKWYREAELIHGRWAMAAVLGIFVGQAWSGVAWFEAGAQPDAIAPFSFGSLLGTQLLLMGWVESKRWVDFFNPDSQSVEWATPWSKTAENFANYTGDQGYPGGRFFDPLGLAGKNRDGVYEPDFEKLERLKLAEIKHSRLAMVAMLIFYFEAGQGKTPLGALGL
# What was measured:
# Assay in all cases: glycan array binding signal (z-score within array); higher = stronger binding
# Settings in all cases: glycan notation: IUPAC condensed, linker removed
# [1] = target: GalNAc(b1-4)GlcNAc
# How it was run: (§1)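 Glycan array data were curated from 3228 arrays in the Consortium for Functional Glycomics database and kept only where the protein sequence was available. Glycan names were converted to IUPAC-condensed notation, and columns mapping to the same glycan were averaged. The binding signal is a within-array Z-score, averaged across arrays of the same protein sequence at different concentrations or buffers and across linkers. Negative Z-scores can be read as non-binding.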
# [2] = target: GalNAc(b1-4)GlcNAc(b1-2)Man
# How it was run: as §1
# [3] = target: GalNAc(b1-4)GlcNAc(b1-2)Man(a1-3)[GalNAc(b1-4)GlcNAc(b1-2)Man(a1-6)]Man(b1-4)GlcNAc(b1-4)GlcNAc
# How it was run: as §1
# [4] = target: GalNAc(b1-4)GlcNAc(b1-3)GalNAc(b1-4)GlcNAc
# How it was run: as §1
# [5] = target: GalNAc(b1-4)GlcNAc6S
# How it was run: as §1
# [6] = target: GalNAc(b1-6)GalNAc
# How it was run: as §1
# [7] = target: GalNAc3S(b1-4)GlcNAc
# How it was run: as §1
# [8] = target: GalNAc3S(b1-4)GlcNAc3S
# How it was run: as §1
# [9] = target: GalNAc3S(b1-4)[Fuc(a1-3)]GlcNAc
# How it was run: as §1
# [10] = target: GalNAc4S6S(b1-4)GlcNAc
# How it was run: as §1
# [11] = target: GalNAc6S(b1-4)GlcNAc
# How it was run: as §1
# [12] = target: Glc(a1-4)Glc
# How it was run: as §1
# [13] = target: Glc(a1-4)Glc(a1-4)Glc(a1-4)Glc
# How it was run: as §1
# [14] = target: Glc(a1-6)Glc(a1-6)Glc
# How it was run: as §1
# [15] = target: Glc(a1-6)Glc(a1-6)Glc(a1-6)Glc
# How it was run: as §1
# [16] = target: Glc(b1-4)Glc
# How it was run: as §1
# [17] = target: Glc(b1-6)Glc
# How it was run: as §1
# [18] = target: GlcA(b1-3)Gal
# How it was run: as §1
# [19] = target: GlcA(b1-3)GlcNAc
# How it was run: as §1
# [20] = target: GlcA(b1-6)Gal
# How it was run: as §1
# [21] = target: GlcA3S(b1-3)Gal(b1-4)GlcNAc(b1-2)Man
# How it was run: as §1
# [22] = target: GlcA3S(b1-3)Gal(b1-4)GlcNAc(b1-3)Gal(b1-4)Glc
# How it was run: as §1
# [23] = target: GlcNAc(a1-3)Gal(b1-4)GlcNAc
# How it was run: as §1
# [24] = target: GlcNAc(a1-4)Gal(b1-3)GlcNAc
# How it was run: as §1
# [25] = target: GlcNAc(a1-4)Gal(b1-4)GalNAc
# How it was run: as §1
# [26] = target: GlcNAc(a1-4)Gal(b1-4)GlcNAc
# How it was run: as §1
# [27] = target: GlcNAc(a1-4)Gal(b1-4)GlcNAc(b1-3)Gal(b1-4)Glc
# How it was run: as §1
# [28] = target: GlcNAc(a1-4)Gal(b1-4)GlcNAc(b1-3)Gal(b1-4)GlcNAc
# How it was run: as §1
# [29] = target: GlcNAc(a1-4)Gal(b1-4)GlcNAc(b1-3)Gal(b1-4)GlcNAc(b1-3)Gal(b1-4)GlcNAc
# How it was run: as §1
# [30] = target: GlcNAc(a1-4)Gal(b1-4)GlcNAc(b1-3)Gal(b1-4)[Fuc(a1-3)]GlcNAc(b1-3)Gal(b1-4)[Fuc(a1-3)]GlcNAc
# How it was run: as §1
# [31] = target: GlcNAc(a1-6)Gal(b1-4)GlcNAc
# How it was run: as §1
# [32] = target: GlcNAc(b1-2)Gal(b1-3)GalNAc
# How it was run: as §1
# [33] = target: GlcNAc(b1-2)Man(a1-3)[GlcNAc(b1-2)Man(a1-6)]Man(b1-4)GlcNAc(b1-4)GlcNAc
# How it was run: as §1
# [34] = target: GlcNAc(b1-2)Man(a1-3)[GlcNAc(b1-2)Man(a1-6)]Man(b1-4)GlcNAc(b1-4)[Fuc(a1-6)]GlcNAc
# How it was run: as §1
# [35] = target: GlcNAc(b1-2)Man(a1-3)[GlcNAc(b1-4)][GlcNAc(b1-2)Man(a1-6)]Man(b1-4)GlcNAc(b1-4)GlcNAc
# How it was run: as §1
# [36] = target: GlcNAc(b1-2)Man(a1-3)[GlcNAc(b1-4)][GlcNAc(b1-2)Man(a1-6)]Man(b1-4)GlcNAc(b1-4)[Fuc(a1-6)]GlcNAc
# How it was run: as §1
# [37] = target: GlcNAc(b1-2)[GlcNAc(b1-4)]Man(a1-3)[GlcNAc(b1-2)Man(a1-6)]Man(b1-4)GlcNAc(b1-4)GlcNAc
# How it was run: as §1
binder,measurement,setting,value
B1,glycan array binding signal (z-score),[1],8.56
same,glycan array binding signal (z-score),[2],-0.065
same,glycan array binding signal (z-score),[3],0.719
same,glycan array binding signal (z-score),[4],-0.566
same,glycan array binding signal (z-score),[5],0.01
same,glycan array binding signal (z-score),[6],-0.112
same,glycan array binding signal (z-score),[7],-0.127
same,glycan array binding signal (z-score),[8],-0.371
same,glycan array binding signal (z-score),[9],-0.59
same,glycan array binding signal (z-score),[10],-0.032
same,glycan array binding signal (z-score),[11],-0.68
same,glycan array binding signal (z-score),[12],0.453
same,glycan array binding signal (z-score),[13],-0.399
same,glycan array binding signal (z-score),[14],0.081
same,glycan array binding signal (z-score),[15],0.217
same,glycan array binding signal (z-score),[16],-0.403
same,glycan array binding signal (z-score),[17],0.035
same,glycan array binding signal (z-score),[18],0.108
same,glycan array binding signal (z-score),[19],-0.355
same,glycan array binding signal (z-score),[20],-0.113
same,glycan array binding signal (z-score),[21],-0.297
same,glycan array binding signal (z-score),[22],-0.177
same,glycan array binding signal (z-score),[23],-0.384
same,glycan array binding signal (z-score),[24],-0.396
same,glycan array binding signal (z-score),[25],0.069
same,glycan array binding signal (z-score),[26],-0.453
same,glycan array binding signal (z-score),[27],-0.626
same,glycan array binding signal (z-score),[28],-0.414
same,glycan array binding signal (z-score),[29],-0.662
same,glycan array binding signal (z-score),[30],-0.205
same,glycan array binding signal (z-score),[31],-0.013
same,glycan array binding signal (z-score),[32],0.153
same,glycan array binding signal (z-score),[33],-0.26
same,glycan array binding signal (z-score),[34],-0.271
same,glycan array binding signal (z-score),[35],-0.399
same,glycan array binding signal (z-score),[36],0.457
same,glycan array binding signal (z-score),[37],0.598
